According to the GPR68 mutational scans of Howard et al. (2025):

B1: GPR68, Q15743 (parent)
chain: MGNITADNSSMSCTIDHTIHQTLAPVVYVTVLVVGFPANCLSLYFGYLQIKARNELGVYLCNLTVADLFYICSLPFWLQYVLQHDNWSHGDLSCQVCGILLYENIYISVGFLCCISVDRYLAVAHPFRFHQFRTLKAAVGVSVVIWAKELLTSIYFLMHEEVIEDENQHRVCFEHYPIQAWQRAINYYRFLVGFLFPICLLLASYQGILRAVRRSHGTQKSRKDQIQRLVLSTVVIFLACFLPYHVLLLVRSVWEASCDFAKGVFNAYHFSLLLTSFNCVADPVLYCFVSETTHRDLARLRGACLAFLTCSRTGRAREAYPLGAPEASGKSGAQGEEPELLTKLHPAFQTPNSPGSGGFPTGRLA

How the values were obtained:
[1] = variants of: B1; test: cAMP reporter score (Enrich2 score, wild type = 0); higher = more signal; HEK293T, FACS bins
[2] = variants of: B1; test: surface expression score (Enrich2 score, wild type = 0); higher = more signal; HEK293T, FACS bins

Row | Variant | cAMP reporter score ([1]; pH 5.5) | cAMP reporter score ([1]; pH 6) | cAMP reporter score ([1]; pH 6, modulator: ogerin) | cAMP reporter score ([1]; pH 6.5, modulator: ogerin) | surface expression score [2]
1 | MGNITADNSSMSCTIDHTIHQTLAPVVYVTVLVVGFPANCLSLYFGYLQIKARNELGVYLCNLTVADLFYICSLPFWLQYVLQHDNWSHGDLSCQVCGILLYENIYISVGFLCCISVDRYLAVAHPFRFHQFRTLKAAVGVSVVIWAKELLTSIYFLMHEEVIEDENQHRVCFEHYPIQAWQRAINYYRFLVGFLFPICLLLASYQGILRAVRRSHGTQKSRKDQIQRLVLSTVVIFLACFLPYHVLLLVRSVWEASCDFAKGVFNAYHFSLLLTSFNCVADPVSYCFVSETTHRDLARLRGACLAFLTCSRTGRAREAYPLGAPEASGKSGAQGEEPELLTKLHPAFQTPNSPGSGGFPTGRLA [L285S] | -0.65 | -0.831 | -1.58 | -0.469 | -2.42
2 | MGNITADNSSMSCTIDHTIHQTLAPVVYVTVLVVGFPANCLSLYFGYLQIKARNELGVYLCNLTVADLFYICSLPFWLQYVLQHDNWSHGDLSCQVCGILLYENIYISVGFLCCISVDRYLAVAHPFRFHQFRTLKAAVGVSVVIWAKELLTSIYFLMHEEVIEDENQHRVCFEHYPIQAWQRAINYYRFLVGFLFPICLLLASYQGILRAVRRSHGTQKSRKDQIQRLVLSTVVIFLACFLPYHVLLLVRSVWEASCDFAKGVFNAYHFSLLLTSFNCVADPVTYCFVSETTHRDLARLRGACLAFLTCSRTGRAREAYPLGAPEASGKSGAQGEEPELLTKLHPAFQTPNSPGSGGFPTGRLA [L285T] | 0.621 | 0.481 | 0.588 | -1.07 | 
3 | MGNITADNSSMSCTIDHTIHQTLAPVVYVTVLVVGFPANCLSLYFGYLQIKARNELGVYLCNLTVADLFYICSLPFWLQYVLQHDNWSHGDLSCQVCGILLYENIYISVGFLCCISVDRYLAVAHPFRFHQFRTLKAAVGVSVVIWAKELLTSIYFLMHEEVIEDENQHRVCFEHYPIQAWQRAINYYRFLVGFLFPICLLLASYQGILRAVRRSHGTQKSRKDQIQRLVLSTVVIFLACFLPYHVLLLVRSVWEASCDFAKGVFNAYHFSLLLTSFNCVADPVVYCFVSETTHRDLARLRGACLAFLTCSRTGRAREAYPLGAPEASGKSGAQGEEPELLTKLHPAFQTPNSPGSGGFPTGRLA [L285V] | 0.77 |  | 1.25 | 1.49 | -1.04
4 | MGNITADNSSMSCTIDHTIHQTLAPVVYVTVLVVGFPANCLSLYFGYLQIKARNELGVYLCNLTVADLFYICSLPFWLQYVLQHDNWSHGDLSCQVCGILLYENIYISVGFLCCISVDRYLAVAHPFRFHQFRTLKAAVGVSVVIWAKELLTSIYFLMHEEVIEDENQHRVCFEHYPIQAWQRAINYYRFLVGFLFPICLLLASYQGILRAVRRSHGTQKSRKDQIQRLVLSTVVIFLACFLPYHVLLLVRSVWEASCDFAKGVFNAYHFSLLLTSFNCVADPVWYCFVSETTHRDLARLRGACLAFLTCSRTGRAREAYPLGAPEASGKSGAQGEEPELLTKLHPAFQTPNSPGSGGFPTGRLA [L285W] | -0.287 | -0.493 | -0.159 | -0.706 | -1

The least precise scores are not listed. Not listed are two conditions whose scores span a narrow range. Read del as a deletion of the residues named and ins as an insertion between two positions. For part of these data: How much ogerin was present is not stated here.
